13 compounds from the antibiotic and cytotoxicity screens of Wong et al. (2023) can be followed below.

The list shows a part of the results.

One experiment deals with HSkMC (human skeletal muscle cells). Put plainly: cytotoxicity call (relative viability < 0.9). Particulars: 10 µM.
Another experiment concerns HepG2. As to the kind of experiment: cytotoxicity call (relative viability < 0.9). Particulars: 10 µM.
In another experiment the test system is S. aureus RN4220. Put plainly: growth inhibition call (relative growth <= 0.2). Particulars: 50 µM.

As for `O=C(O)C(Cl)Cl`, the cytotoxicity call with HSkMC and in the experiment on HepG2 was “inactive” each time. For the same compound, the growth inhibition call with S. aureus RN4220 is “inactive”.
Take `COc1cc2ccc(=O)oc2c2ccoc12`: the cytotoxicity call with HSkMC and in the experiment with HepG2 was “inactive” in each case. The growth inhibition call in the experiment with S. aureus RN4220 was “inactive”.
Turning to `COC(=O)[C@]1(Cc2ccccc2CN=[N+]=[N-])N=C(c2ccc(OCCCO)cc2)O[C@@H]1c1ccccc1N=[N+]=[N-]`, the cytotoxicity call with HSkMC is “inactive”. Further, the cytotoxicity call with HepG2 was “active”. Further, the growth inhibition call in the experiment with S. aureus RN4220 was “inactive”.
In the case of `CCC(C)C1OC2(C=CC1C)CC1CC(CC=C(C)C(OC3CC(OC)C(OC4CC(OC)C(O)C(C)O4)C(C)O3)C(C)C=CC=C3COC4C(O)C(C)=CC(C(=O)O1)C34O)O2` (stereo unspecified) [ABAMECTIN (avermectin B1a shown)], in the experiment with S. aureus RN4220, the growth inhibition call is “inactive”.
Regarding `CC(C)(C)c1ccc(O)cc1`, in the experiment with S. aureus RN4220, the growth inhibition call was “inactive”.
For the compound `CCC(C(N)=O)N1CCCC1=O` (stereo unspecified), the cytotoxicity call with HSkMC and with HepG2 was “inactive” each time. Further, the growth inhibition call in the experiment on S. aureus RN4220 was “inactive”.
As to `[N-]=[N+]=CC(=O)OCC(N)C(=O)O` (stereo unspecified), the cytotoxicity call with HSkMC is “inactive”. Moreover, the cytotoxicity call in the experiment on HepG2 is “active”. In addition, in the experiment on S. aureus RN4220, the growth inhibition call was “inactive”.
On to `CC(C)[N+](C)(CCC(C(N)=O)(c1ccccc1)c1ccccc1)C(C)C.[I-]`, for which the cytotoxicity call with HSkMC and in the experiment with HepG2 was “inactive” in each case. The growth inhibition call in the experiment on S. aureus RN4220 was “inactive”.
In the case of `CN1C(=O)CCS(=O)(=O)C1c1ccc(Cl)cc1` (stereo unspecified), the cytotoxicity call in the experiment with HSkMC and in the experiment on HepG2 was “inactive” in each case. For the same compound, the growth inhibition call in the experiment on S. aureus RN4220 is “inactive”.
With `CC1(C)C(=O)C2OC2C2(C)C1CC(O)C1(C)C2CCC2(C)C(c3ccoc3)OC(=O)C3OC321` (stereo not drawn) [1,2alpha-EPOXYDEACETOXYDIHYDROGEDUNIN], the growth inhibition call in the experiment on S. aureus RN4220 is “inactive”.
`CC(C)N(C)C[C@H]1CO[C@]2(CNCCOC2)C1`: the cytotoxicity call in the experiment with HSkMC and with HepG2 was “inactive” throughout. In addition, the growth inhibition call with S. aureus RN4220 is “inactive”.
As to `N/N=C(/N)NO`, the cytotoxicity call with HSkMC and in the experiment on HepG2 was “inactive” each time. In addition, the growth inhibition call with S. aureus RN4220 was “inactive”.
With `C[C@]12CCC(=O)C[C@@H]1CC[C@@H]1[C@@H]2CC[C@]2(C)C(=O)CC[C@@H]12` [5alpha-ANDROSTAN-3,17-DIONE], the growth inhibition call with S. aureus RN4220 was “inactive”.
